# The full ranking holds about 2,900 compounds; the median of “IRF Lucia reporter activity, fold change vs agonist alone” is about 0.9, and the highest 2% start at about 2.8. The list shows a part of the results.
# Legend:
# RAW-Dual [1] = assay: IRF Lucia reporter activity, fold change vs agonist alone; cytotoxicity flag (confluency mask): cytotoxic (confluency <70% of control); higher = enhanced IRF activity
# Summary of the method: (§1)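 Reporter activity is given as fold change relative to agonist-alone wells. To measure it, 50 nL of library stock was pin-tooled onto RAW-Dual macrophages (50,000 cells/well, DMEM, 384-well plates), a PRR agonist followed 1 h later, and cells stayed at 37 °C, 5% CO2. Twenty hours on, supernatant was assayed for IRF (QuantiLuc luminescence) and NF-κB (QuantiBlue, 620 nm absorbance), and wells under 70% of agonist-control IncuCyte confluency in both mask sets were marked cytotoxic.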
# RAW-Dual [2] = assay: IRF Lucia reporter activity, fold change vs agonist alone; higher = enhanced IRF activity; conditions: agonist: MPLA (TLR4) […]
# Summary of the method: as §1
# RAW-Dual [3] = assay: IRF Lucia reporter activity, fold change vs agonist alone; cytotoxicity flag (confluency mask): not cytotoxic; higher = enhanced IRF activity
# Summary of the method: as §1
# [4] = agonist: 3'3'-cGAMP (STING) 10 ug/mL
# [5] = library stock concentration (final ~1000-fold dilution): 10 mM, cytotoxicity flag (confluency mask): cytotoxic (confluency <70% of control)
# [6] = library stock concentration (final ~1000-fold dilution): 10 mM, cytotoxicity flag (confluency mask): not cytotoxic
structure (smiles),measurement,setting,value
CC1OC(OC2CCC3(C)C(CCC4(C)C3C=CC35OCC6(CCC(C)(C)CC63)C(O)CC45C)C2(C)CO)C(O)C(OC2OC(CO)C(O)C(O)C2O)C1O (centres undefined) (library stock concentration (final ~1000-fold dilution): 10 mM),IRF Lucia reporter activity,RAW-Dual [1]; [4],0.0904
same,IRF Lucia reporter activity,RAW-Dual [1]; agonist: LPS (TLR4) 0.1 ug/mL,0.112
CC1OC(OC2CCC3(C)C(CCC4(C)C3C=CC35OCC6(CCC(C)(C)CC63)C(O)CC45C)C2(C)CO)C(O)C(OC2OC(CO)C(O)C(O)C2O)C1O (centres undefined),IRF Lucia reporter activity,RAW-Dual [2]; [5],0.0883
CCOC(=O)C=P(c1ccccc1)(c1ccccc1)c1ccccc1 (library stock concentration (final ~1000-fold dilution): 10 mM),IRF Lucia reporter activity,RAW-Dual [3]; [4],0.979
same,IRF Lucia reporter activity,RAW-Dual [3]; agonist: LPS (TLR4) 0.1 ug/mL,1.3
CCOC(=O)C=P(c1ccccc1)(c1ccccc1)c1ccccc1,IRF Lucia reporter activity,RAW-Dual [2]; [6],1.08
COc1cccc(NC(=O)/C=C/c2ccc(Cl)cc2)c1 (library stock concentration (final ~1000-fold dilution): 10 mM),IRF Lucia reporter activity,RAW-Dual [3]; [4],0.863
same,IRF Lucia reporter activity,RAW-Dual [3]; agonist: LPS (TLR4) 0.1 ug/mL,0.892
COc1cc(OC)c2c(=O)[nH]c(-c3cc(C)c(OCCO)c(C)c3)nc2c1,IRF Lucia reporter activity,RAW-Dual [2]; [6],0.582
COc1cc(OC)c2c(=O)[nH]c(-c3cc(C)c(OCCO)c(C)c3)nc2c1 (library stock concentration (final ~1000-fold dilution): 10 mM),IRF Lucia reporter activity,RAW-Dual [3]; [4],0.492
same,IRF Lucia reporter activity,RAW-Dual [3]; agonist: LPS (TLR4) 0.1 ug/mL,0.392
Cc1ccc(C(=O)Nc2ccc(CN3CCN(C)CC3)c(C(F)(F)F)c2)cc1C#Cc1cnc2cccnn12,IRF Lucia reporter activity,RAW-Dual [2]; [5],0.0224
Cc1ccc(C(=O)Nc2ccc(CN3CCN(C)CC3)c(C(F)(F)F)c2)cc1C#Cc1cnc2cccnn12 (library stock concentration (final ~1000-fold dilution): 10 mM),IRF Lucia reporter activity,RAW-Dual [1]; [4],0.0706
same,IRF Lucia reporter activity,RAW-Dual [1]; agonist: LPS (TLR4) 0.1 ug/mL,0.0229
COc1ccccc1C(=O)Nc1cc2c(cc1N1CCCCC1)n(C)c(=O)n2C (library stock concentration (final ~1000-fold dilution): 10 mM),IRF Lucia reporter activity,RAW-Dual [3]; [4],0.77
same,IRF Lucia reporter activity,RAW-Dual [3]; agonist: LPS (TLR4) 0.1 ug/mL,0.621
COc1ccccc1C(=O)Nc1cc2c(cc1N1CCCCC1)n(C)c(=O)n2C,IRF Lucia reporter activity,RAW-Dual [2]; [6],0.915
O=C1Nc2ccc(CN3C(=O)CSC3=O)cc2/C1=C/c1cc(CN2CCOCC2)c[nH]1 (library stock concentration (final ~1000-fold dilution): 10 mM),IRF Lucia reporter activity,RAW-Dual [3]; [4],0.227
same,IRF Lucia reporter activity,RAW-Dual [3]; agonist: LPS (TLR4) 0.1 ug/mL,0.666
CN1CCN(C(=O)c2ccc(-c3ccc4c(C=O)c(O)ccc4c3)s2)CC1 (library stock concentration (final ~1000-fold dilution): 10 mM),IRF Lucia reporter activity,RAW-Dual [3]; [4],0.228
same,IRF Lucia reporter activity,RAW-Dual [3]; agonist: LPS (TLR4) 0.1 ug/mL,0.45
COc1ccc2c(Nc3cc(NC(=O)c4cccc(C(C)(C)C#N)c4)ccc3C)ncnc2c1 (library stock concentration (final ~1000-fold dilution): 10 mM),IRF Lucia reporter activity,RAW-Dual [3]; [4],0.117
same,IRF Lucia reporter activity,RAW-Dual [3]; agonist: LPS (TLR4) 0.1 ug/mL,0.481
COC(=O)c1cc(O)c(O)c(O)c1 (library stock concentration (final ~1000-fold dilution): 10 mM),IRF Lucia reporter activity,RAW-Dual [3]; [4],0.299
same,IRF Lucia reporter activity,RAW-Dual [3]; agonist: LPS (TLR4) 0.1 ug/mL,0.817
CCc1cnn2c(NCc3ccc[n+]([O-])c3)cc(N3CCCCC3CCO)nc12 (centres undefined),IRF Lucia reporter activity,RAW-Dual [2]; [5],0.0249
CCc1cnn2c(NCc3ccc[n+]([O-])c3)cc(N3CCCCC3CCO)nc12 (centres undefined) (library stock concentration (final ~1000-fold dilution): 10 mM),IRF Lucia reporter activity,RAW-Dual [1]; [4],0.015
same,IRF Lucia reporter activity,RAW-Dual [1]; agonist: LPS (TLR4) 0.1 ug/mL,0.0211
N#Cc1ccc(-c2c(-c3ncn[nH]3)sc(N3CCOCC3)c2C#N)c(F)c1 (library stock concentration (final ~1000-fold dilution): 10 mM),IRF Lucia reporter activity,RAW-Dual [3]; [4],0.455
same,IRF Lucia reporter activity,RAW-Dual [3]; agonist: LPS (TLR4) 0.1 ug/mL,10.2
Cc1ccc([N+](=O)[O-])cc1S(=O)(=O)N(C)/N=C/c1cnc2ccc(Br)cn12.Cl (library stock concentration (final ~1000-fold dilution): 2 mM),IRF Lucia reporter activity,RAW-Dual [1]; [4],0.0223
same,IRF Lucia reporter activity,RAW-Dual [1]; agonist: LPS (TLR4) 0.1 ug/mL,0.0233
Cc1ccc([N+](=O)[O-])cc1S(=O)(=O)N(C)/N=C/c1cnc2ccc(Br)cn12.Cl,IRF Lucia reporter activity,"RAW-Dual [2]; library stock concentration (final ~1000-fold dilution): 2 mM, cytotoxicity flag (confluency mask): cytotoxic (confluency <70% of control)",0.927
Cc1cccc(CN2CCN(C(c3ccccc3)c3ccc(Cl)cc3)CC2)c1.Cl.Cl (centres undefined) (library stock concentration (final ~1000-fold dilution): 2 mM),IRF Lucia reporter activity,RAW-Dual [3]; [4],0.843
same,IRF Lucia reporter activity,RAW-Dual [3]; agonist: LPS (TLR4) 0.1 ug/mL,0.869
Cc1cccc(CN2CCN(C(c3ccccc3)c3ccc(Cl)cc3)CC2)c1.Cl.Cl (centres undefined),IRF Lucia reporter activity,"RAW-Dual [2]; library stock concentration (final ~1000-fold dilution): 2 mM, cytotoxicity flag (confluency mask): not cytotoxic",1.34
CC(C)CC(NC(=O)C(NC(=O)c1cccc(-c2ccccc2)n1)C(C)O)B(O)O (centres undefined) (library stock concentration (final ~1000-fold dilution): 10 mM),IRF Lucia reporter activity,RAW-Dual [3]; [4],0.502
same,IRF Lucia reporter activity,RAW-Dual [3]; agonist: LPS (TLR4) 0.1 ug/mL,2.55
CC(C)CC(NC(=O)C(NC(=O)c1cccc(-c2ccccc2)n1)C(C)O)B(O)O (centres undefined),IRF Lucia reporter activity,RAW-Dual [2]; [6],2.38
COC(=O)C(c1ccccc1Cl)N1CCc2sccc2C1.O=S(=O)(O)O (centres undefined),IRF Lucia reporter activity,RAW-Dual [2]; [6],1.05
COC(=O)C(c1ccccc1Cl)N1CCc2sccc2C1.O=S(=O)(O)O (centres undefined) (library stock concentration (final ~1000-fold dilution): 10 mM),IRF Lucia reporter activity,RAW-Dual [3]; [4],1.02
same,IRF Lucia reporter activity,RAW-Dual [3]; agonist: LPS (TLR4) 0.1 ug/mL,1.23
CC(NC(=O)C(=O)Nc1ccccc1C(C)(C)C)C(=O)NC(CC(=O)O)C(=O)COc1c(F)c(F)cc(F)c1F (centres undefined) (library stock concentration (final ~1000-fold dilution): 10 mM),IRF Lucia reporter activity,RAW-Dual [3]; [4],1
same,IRF Lucia reporter activity,RAW-Dual [3]; agonist: LPS (TLR4) 0.1 ug/mL,0.3

# Reference: the supplement of paper PMC10037445
